Columns and labels:
[1] = tested on: c-MET amplified SNU5 cells; assay: Cell growth-inhibition assay (CellTiter 96 Aqueous One Solution, MTS); type: cell-based; details: Homo sapiens, SNU-5, 72 h, cytotoxic assay, drugs for 3 d
MET-amplified SNU5 cells = details: FIG. 12

Row | SMILES | IC50 [1] [nM] | HER2 activation (MET-amplified SNU5 cells)
1 | Cc1[nH]c(/C=C2\C(=O)Nc3ccc(S(=O)(=O)Cc4c(Cl)cccc4Cl)cc32)c(C)c1C(=O)N1CCC[C@@H]1CN1CCCC1 [PHA665,752] | 58 | –
2 | CS(=O)(=O)CCNCc1ccc(-c2ccc3ncnc(Nc4ccc(OCc5cccc(F)c5)c(Cl)c4)c3c2)o1 [lapatinib] | > 1000 | unable to do so
